Experimental data from PubChem BioAssay AID588501 (NMMLSC, 2011).
Out of some 360,000 compounds screened, about 420 (0.12%) were called active. This list was built around the results that the source calls inconclusive (neither active nor inactive); the mix of calls is not that of the screen. Cut-off read from the data, not from the text of the source: active = inhibition above about 30%; inconclusive = no clear call, values can overlap the other calls; inactive = below that.

target: Lethal factor (Bacillus anthracis) (UniProt P15917); experiment: anthrax lethal factor cleavage blockers – biochemical, multiplex microsphere, MLPCN library, primary screen (AID 588501); conditions: multiplex microsphere protease cleavage assay, LF; at 10 µM; active compounds read high; note: plate controls were buffer without enzyme for full effect and enzyme alone for no effect

Row | Compound | inhibition
1 | CCC1(CC)NC(=O)N(CC(=O)OC(C)C(=O)Nc2ccc(Cl)cn2)C1=O (centres undefined) | inconclusive: -6.9%
2 | CCN(CC)c1ccc(/C=N/NC(=O)c2ccccn2)cc1 | inconclusive: -22.6%
3 | CN1CCc2c(sc(NC(=O)c3ccc(S(=O)(=O)N4CCCCCC4)cc3)c2C(N)=O)C1 | inconclusive: 2.8%
4 | CCCn1c(SCC(=O)OCc2ccccc2)nc2c1c(=O)n(C)c(=O)n2C | inconclusive: -14.6%
5 | CCOC(=O)Nc1cc(C(=O)OC)ccc1C | inconclusive: 13.8%
6 | Cc1ccc(NC(=O)C2CCN(S(=O)(=O)c3ccc(C(C)(C)C)cc3)CC2)cc1S(=O)(=O)N1CCOCC1 | inactive: -7%
7 | COc1ccc(CN(CCCn2cnc3c(OC)ncnc32)CCCn2cnc3c(OC)ncnc32)cc1 | inactive: -7.5%
8 | CCCCCCC(Cl)(Cn1ccnc1)c1ccccc1 (centres undefined) | inactive: -7%
9 | CCN(CC)c1ccc(/C=C(\C#N)C(=O)c2ccc(Br)cc2)cc1 | active: 46.5%
10 | Oc1cc2ccccc2cc1-c1n[nH]c(=S)n1Cc1ccco1 | inactive: -0.8%
11 | O=C(CSC1=NS(=O)(=O)c2cc(Cl)ccc2N1)Nc1cccc(F)c1 | inconclusive: 0.2%
12 | CC1=NN(c2ccccc2)C(=O)C1CCC#N (centres undefined) | inactive: -13%
13 | Cn1c2c(c(=O)n(C)c1=O)C(CC(=O)Nc1ccccc1F)C(=O)N2 (centres undefined) | inconclusive: -25.9%
14 | Cc1ccc(S(=O)(=O)NC(C(=O)N2CCN(S(=O)(=O)c3cccc(F)c3)CC2)C(C)C)cc1 (centres undefined) | inconclusive: -2.1%
15 | O=C(NCc1ccc(F)cc1)N1CCN(C(=O)c2ccccc2)CC1 | inconclusive: 1.7%
16 | c1csc(Cn2c(-c3cccs3)nc3ccccc32)c1 | inconclusive: -3.9%
17 | S=C(NNC(=S)NC1CC2C=CC1C2)NC1CC2C=CC1C2 (centres undefined) | inconclusive: -45.1%
18 | O=C(/C=C/c1ccccc1Cl)Nc1ccccc1 | inconclusive: 9.7%
19 | O=c1c2cc(N3CCOCC3)ccc2[nH]c(=S)n1Cc1ccco1 | inconclusive: 2.9%
20 | CCN(CCNCC(O)COCc1ccc(Cl)cc1)c1cccc(C)c1 (centres undefined) | inactive: -5.7%
21 | O=C1CCC(=O)N1c1ccccc1 | inactive: 4.2%
22 | CC(=O)Nc1ccc(S(=O)(=O)NCCC(=O)Nc2ncccc2C)cc1 | inconclusive: -3.2%
23 | CN(CC(=O)Nc1c(Cl)cccc1Cl)C(=O)CNC(=O)c1ccc2c(c1)OCO2 | inconclusive: -2.1%

Row | Compound | inhibition
24 | O=C(O)CNC1c2ccccc2CSc2ccccc21 (centres undefined) | inconclusive: -16.8%
25 | Nc1nonc1N1CCCCC1 | inconclusive: -44.9%
26 | COc1ccc(-n2nnnc2SCC(=O)NC2CCS(=O)(=O)C2)cc1 (centres undefined) | inconclusive: 4.6%
27 | CCOc1ccc(CC2CC(=O)NC2=O)cc1 (centres undefined) | inconclusive: -4.7%
28 | CSc1sc(-c2ccnc(=S)[nH]2)c(-c2ccccc2)c1C#N | inconclusive: -34.7%
29 | Cc1ccc(-c2cc(C(=O)NCCCN3CCOCC3)c3ccccc3n2)cc1 | inconclusive: -6.6%
30 | O=C1NCCCC1C(=O)Nc1ccccc1C(F)(F)F (centres undefined) | inconclusive: -6.3%
31 | COc1cc(OC)c(/C=N/NC(=O)Cn2nc([N+](=O)[O-])cc2C)c(OC)c1 | inconclusive: 4.4%
32 | Cc1onc(-c2c(F)cccc2Cl)c1C(=O)N(C)CC(=O)Nc1cccc(F)c1 | inconclusive: -1.8%
33 | CCC(C)N(C(=O)CSc1nnc(-c2cccs2)n1C1CC1)C1CCS(=O)(=O)C1 (centres undefined) | inconclusive: -3.2%
34 | CC1CCC2(CC1)NC(=O)N(NC(=O)CCc1c[nH]c3ccccc13)C2=O (centres undefined) | inconclusive: -15.1%
35 | CCOc1ccc(CCNC(=O)COC(=O)C2=NNC(=O)CC2)cc1OCC | inconclusive: 2.1%
36 | Cc1ccc(CN(C)C(=O)CN2C(=O)NC3(CCCc4ccccc43)C2=O)c(C)c1 (centres undefined) | inconclusive: 1.7%
37 | CCC1(c2ccc(F)cc2)NC(=O)N(CC(=O)Nc2cccc(S(=O)(=O)N3CCCCC3)c2)C1=O (centres undefined) | inconclusive: 2.9%
38 | CCN(CC(=O)Nc1cc(Cl)ccc1C)C(=O)CN1C(=O)NC(CC)(c2ccccc2)C1=O (centres undefined) | inconclusive: -5%
39 | COc1ccc(C(=O)N(CN2CCCC2=O)c2ccc(C)cc2)cc1 | inconclusive: -31.6%
40 | COc1ccccc1C(=O)NCCN=C1NS(=O)(=O)c2ccccc21 | inactive: -6.7%
41 | CC(=O)Nc1ccc(NC(=O)CSc2nccn2Cc2ccc(Cl)cc2)cc1 | inactive: -4.8%
42 | Cc1cc(Br)ccc1SCC(=O)OCC(=O)Nc1ccc2[nH]c(=O)[nH]c2c1 | active: 36.3%
43 | CCn1cc(C(=O)O)c(=O)c2cnc(N3CCN(C(=S)NC(=O)c4ccc(F)c(F)c4)CC3)nc21 | inconclusive: -5.5%
44 | Cc1c(-c2ccccc2)nc(N)c(C#N)c1-c1ccco1 | inactive: -0.5%
45 | COCCOn1c(SCCOC)nc2ccccc2c1=O | inconclusive: -9.4%
46 | COc1ccc(NC(=O)c2cccc(-c3ccc(O)cc3)c2)cn1 | inactive: -0.3%

Row | Compound | inhibition
47 | Nc1nc(SCc2ccccc2)sc1C(=O)N1CCCCC1 | inactive: -5.9%
48 | COCC(=O)n1nc(-c2ccc(Cl)cc2)nc1NCc1ccc(F)cc1 | inconclusive: -10.2%
49 | CCS(=O)(=O)c1ccc2oc(SCC(=O)NCCc3ccccc3)nc2c1 | inactive: 0.4%
50 | CN1/C(=C\C=Nc2ccccc2)C(C)(C)c2ccccc21 | inconclusive: -2%
51 | COC(=O)C1CC(O)CN1C(=O)c1ccco1 (centres undefined) | inconclusive: -0.5%
52 | Cc1cc(C)cc(NC(=O)COC(=O)COc2cccc3c2OC(C)(C)C3)c1 | inconclusive: 1.2%
53 | Cc1occc1-c1nnc(SCC(=O)c2c[nH]c3ccccc23)n1C | active: 44.6%
54 | CN(c1ccccc1)S(=O)(=O)c1ccc(C(=O)N2CCN(c3ccccc3Cl)CC2)cc1 | inconclusive: -3.1%
55 | COc1cc2c(cc1OC)[C@@H](NC(=O)C(C)C)[C@H](OCc1ccccc1)C2 | inactive: 2.7%
56 | CNC(=S)NNC(=O)CSCc1c(Cl)cccc1Cl | inconclusive: -30.2%
57 | CCn1c2ccccc2c2nc3cc(S(=O)(=O)N4CCOCC4)ccc3nc21 | active: 33%
58 | CC(C)Cc1nc(Cl)c(C#N)c2c1CCC2 | inconclusive: 5.9%
59 | CCC12CSc3nc(Cl)ccc3N1C(=O)C(=O)N2C (centres undefined) | inconclusive: 4.8%
60 | Oc1c(C=C2N=c3ccccc3=N2)sc(=S)n1C1CCCC1 | active: 39.4%
61 | COc1ccc(CNC(=O)c2sc(=S)n(-c3ccc(OC)cc3)c2N)cc1 | inactive: -4.3%
62 | Cn1c(=O)c2c(nc(CN3CCN(c4ccc(F)cc4)CC3)n2Cc2ccccc2F)n(C)c1=O | inconclusive: 7.8%
63 | COc1ccccc1N1CCN(Cc2cc(=O)c(OCC(=O)NC3CCCC3)co2)CC1 | inconclusive: -3.7%
64 | Cc1ccc2c(c1)c1c(n2CC(O)Cn2nc(C)c(Br)c2C)CCCC1 (centres undefined) | inconclusive: -31.6%
65 | Cc1cccn2c(=O)nc(SCC(=O)N3CC(C)OC(C)C3)nc12 (centres undefined) | inconclusive: -10.3%
66 | CCCOc1ccc(C(=O)NNC(=O)CCNC(=O)c2ccco2)cc1OC | inconclusive: 1%
67 | Cc1ccc(-n2ncc(C(=O)N3CCN(C(=O)c4ccco4)CC3)c2C2CCN(C(=O)OC(C)(C)C)CC2)cc1C | inconclusive: -12.6%
68 | CC1(C)NC(=O)N(CCCCSc2ccc(Cl)cc2)C1=O | inconclusive: -3.1%
69 | Cc1sc2ncnc(N3CCC(C(=O)Nc4ccc(C#N)c(Cl)c4)CC3)c2c1C | inconclusive: 3.7%

Row | Compound | inhibition
70 | CC(C)CN(C(=O)COC(=O)c1ccc(Br)cc1)c1c(N)n(Cc2ccccc2)c(=O)[nH]c1=O | inconclusive: -3.1%
71 | O=C(CCC1CCCC1)N1CCN(S(=O)(=O)c2ccc(Br)cc2)CC1 | active: 89.4%
72 | CC(C)Cc1nnc(NC(=O)c2cc(S(=O)(=O)N(C)C)ccc2N2CCCC2)s1 | inactive: -4.1%
73 | O=C(O)CCN1C(=O)/C(=C\c2ccc(-c3nc4ccccc4s3)o2)SC1=S | active: 40.5%
74 | Cn1nnnc1SCC(=O)N1CCc2ccccc2C1 | inactive: 0.3%
75 | O=C(CSC1=NS(=O)(=O)c2cc(F)ccc2N1)NCc1ccc(F)cc1 | inconclusive: -1.6%
76 | Cc1c(S(=O)(=O)c2ccccn2)c(N)n(Cc2cccc(Cl)c2)c1C | inconclusive: -8.4%
77 | O=C(NC(=S)NCc1cccnc1)c1cc(Br)ccc1Cl | inconclusive: -8.2%
78 | Cn1c(Oc2cccnc2CN2CCCC2)nc2cc(-c3cccc(C(F)(F)F)c3)sc2c1=O | inactive: -5.4%
79 | COc1ccccc1N1CCN(C(=O)CCNS(=O)(=O)c2cc(Br)cnc2N)CC1 | inconclusive: 4.7%
80 | Cc1ccc2nc(C(C)(C)C)c(Cc3ccsc3)n2c1 | inactive: 1.2%
81 | COc1ccccc1C1=NOC(COc2ccc3c(C)cc(=O)oc3c2)C1 (centres undefined) | inconclusive: -13.1%
82 | O=Cc1ccc(-c2nc3ccccc3s2)o1 | inactive: 1.1%
83 | CCN(CC(=O)Nc1ccc(OC)cc1)C(=O)c1cc2c(s1)CCCCC2 | inconclusive: -3.2%
84 | O=C(c1cccc(NS(=O)(=O)c2ccc(F)cc2)c1)N1CCN(c2ccccc2)CC1 | inconclusive: 3.9%
85 | O=c1[nH][nH]c2nc(C(F)(F)F)cc(C(F)(F)F)c12 | inactive: -1%
86 | CC1CCN(C(=O)c2ncn(Cc3ccccc3)c2C(=O)N2CCC(C)CC2)CC1 | inactive: 8%
87 | COc1ccc(/C=C/C(=O)C2CC2)cc1COc1cccc(C)c1C | active: 30.7%
88 | O=C(NC1CC(=O)N(c2cccc(F)c2)C1)N1CCN(C(=O)c2ccco2)CC1 (centres undefined) | inconclusive: 2.7%
89 | COc1cccc(C#Cc2ccc3c(c2)O[C@H](CN(C)S(=O)(=O)c2ccccc2F)[C@H](C)CN([C@H](C)CO)S3(=O)=O)c1 | inactive: -4.7%
